Results reported in the supplement of paper PMC4723716.
In all, about 3,600 compounds were measured (“viability index relative to DMSO control”: median about 0.81, lowest 2% from about 0.13 on). This is one part of the list.

tested on: Plasmodium falciparum NF54 stage V gametocytes; assay: viability index relative to DMSO control (fraction); higher = less gametocyte killing; details: 1.25 µM, incubation time: 72 h
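Further: 384-well serum-free SaLSSA: MitoTracker Red CMXRos staining with saponin lysis, high-content imaging, treated-well particle count divided by plate-mean count of DMSO wells.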

SMILES	viability index
CCOC(=O)C1=NNC2C(=O)N(c3cccc(C)c3C)C(=O)C12 (configuration not stated)	0.909
Cc1oc2c(c1C(=O)NCC1CCCO1)C(=O)c1ccccc1C2=O (configuration not stated)	0.195
Cc1cccc(N2C(=O)C3C(C2=O)C2(c4ccccc4)C(=O)C3(c3ccccc3)C(c3ccc4c(c3)OCO4)=C2c2ccc3c(c2)OCO3)c1 (configuration not stated)	0.958
N#CC(=Cc1cn(Cc2ccccc2Cl)c2ccccc12)c1nn(CCO)c(N)c1C#N	0.517
Cc1ccc(-c2c3c(nc4sc(C(=O)Nc5ccc(Cl)cc5)c(N)c24)CCCC3)o1	1.01
Fc1ccccc1Nc1nc(NCC2CCCO2)c2ccccc2n1 (configuration not stated)	0.727
CCC(C)OC(=O)C1=C(C)NC2=C(C(=O)CC(c3ccc(Cl)cc3)C2)C1c1cccc(O)c1 (configuration not stated)	0.736
COc1ccccc1NC(=O)c1cnn(-c2ccccc2)c1-n1cccc1	0.9
CCN1C(=CC=Cc2oc3ccc(-c4ccccc4)cc3[n+]2CC)Oc2ccc(-c3ccccc3)cc21	0.238
CCCCCCCCn1c(C)[n+](CC)c2cc(C(=O)OCC)ccc21	0.975
CCc1nc2nc(C)cc(NCCc3cccc(C)c3)n2n1	0.855
CCN1C(=CC=Cc2n(CC)c3ccc(C#N)cc3[n+]2CC)Oc2ccc(-c3ccccc3)cc21	0.472
OC(CNCC1COc2ccccc2O1)c1ccccc1 (configuration not stated)	0.929
COc1cc(C=C(C#N)c2nc3ccccc3[nH]2)ccc1OCc1ccccc1F	0.725
CCN(CC)CCN1C(=O)c2ccccc2NC1c1ccc(N(C)C)cc1 (configuration not stated)	0.794
Cc1ccc(N=C2SC(=Cc3c(Cl)cccc3Cl)C(=O)N2c2ccc(C)c(C)c2)cc1C	0.883
Oc1ccc(-c2ccc(F)cc2)cc1CNC1CCCCC1	0.351
CCOC(=O)N1CCN(C(=O)CSc2nc(-c3ccc(Cl)cc3)cn2-c2ccc(C)cc2)CC1	1.12
c1cc2c(cc1Nc1c3c(nc4nncn14)CCC3)OCCO2	1.13
CSc1nc2nc(C)c(Cc3cccc(C(F)(F)F)c3)c(C)n2n1	0.785
CCCN1CCC(NC2CCCc3c2[nH]c2ccc([N+](=O)[O-])cc32)CC1 (configuration not stated)	0.853
O=C1Nc2ccccc2C1=NN=Cc1ccc(-c2ccccc2[N+](=O)[O-])o1	0.859

SMILES	viability index
Cc1cc(C)c(S(=O)(=O)N2CCC(NC(=O)c3ccccc3)CC2)c(C)c1	0.862
CC(=O)OC(OC(C)=O)C12C=CC(O1)C1C(=O)N(c3cccc(C)c3)C(=O)C12 (configuration not stated)	1.22
CCOc1cc2c(cc1OCC)C(c1ccc(O)c(Cl)c1)NCC2 (configuration not stated)	0.905
O=C1Nc2ccc(S(=O)(=O)Nc3ccc(NS(=O)(=O)c4ccc5c6c(cccc46)C(=O)N5)cc3)c3cccc1c23	0.788
Clc1ccc2[nH]c3c(NCCC4=CCCCC4)ncnc3c2c1	0.758
COc1c(C=NNc2nc(Nc3ccc([N+](=O)[O-])cc3)nc(N3CCN(C)CC3)n2)cccc1[N+](=O)[O-]	0.722
CC(=O)N(C1=C(N(C)C)C(=O)c2ccccc2C1=O)c1ccc(Cl)c(Cl)c1	0.257
CC(C)N(CC(=O)Nc1cc(C(C)(C)C)nn1-c1ccc(Cl)c(Cl)c1)C(=O)c1ccc2ccccc2c1	1.01
Cc1cc2c(cc1C)N(C(=O)c1ccccc1)C(C)(C)c1ssc(=S)c1-2	1.1
Cc1oc2c(c1C(=O)NCCCn1ccnc1)C(=O)c1ccccc1C2=O	0.0826
O=C(c1ccc([N+](=O)[O-])cc1)c1ccc(N2CCOCC2)c([N+](=O)[O-])c1	1.09
c1ccc(CCNc2ncnc3c2[nH]c2ccccc23)cc1	0.785
OC1(c2cccc3ccccc23)CCN(Cc2ccccc2)C1 (configuration not stated)	0.785
O=c1cc(C(F)(F)F)c2cc(Cl)c(O)cc2o1	1
CCOc1ccc(S(=O)(=O)c2cn(Cc3ccccc3C)c3ccc(OC)cc3c2=O)cc1	0.867
CC1=[N+](CC(=O)c2ccc(C)cc2)CCn2c(C)ccc21	0.67
CCOC(=O)C(=O)N1c2ccc(OCC)cc2-c2c(ssc2=S)C1(C)C	0.751
CCOC(=O)c1sc(Nc2c(Cl)cc(S(N)(=O)=O)cc2Cl)nc1C	0.886
CCC(CC)CN1CCC(O)(c2ccc3oc(C(=O)Nc4ccc(OC)cc4)cc3c2)CC1	1.01
O=C(C1CCN(S(=O)(=O)c2cccc3nonc23)CC1)N1CCCc2ccccc21	0.823
Cc1ccc2[nH]c3c(NCCN(C(C)C)C(C)C)ncnc3c2c1	1.01
N#Cc1c(N)nc(SCC(=O)c2ccc(Br)cc2)c(C#N)c1-c1ccccc1	0.857

SMILES	viability index
COc1cc2c(cc1OC)C(COc1ccc(F)cc1)N(C(=O)c1ccc(OC(C)C)cc1)CC2 (configuration not stated)	0.66
COC(=O)C1=C(C)NC2=C(C(=O)CC(c3ccc(Cl)cc3)C2)C1c1ccccc1 (configuration not stated)	0.762
CCC(C)OC(=O)C1=C(C)NC2=C(C(=O)CC(c3ccc(Cl)cc3)C2)C1c1ccccc1F (configuration not stated)	0.849
COc1ccc(C2CC(=O)C3=C(C2)NC(C)=C(C(=O)OC2CCCC2)C3c2ccc(Cl)cc2)cc1OC (configuration not stated)	0.347
COC(=O)C1=C(C)N(C)C(C)=C(C(=O)OC)C1c1ccc([N+](=O)[O-])cc1	0.811
COc1ccccc1N1CCN(c2ccc(NC(=O)c3cccc(F)c3)cc2C(=O)N2CCCC2)CC1	0.893
Cc1ccc(N2C(N)=NC(N)=NC2(C)C)cc1	0.985
CCC1CCCCN1C(=O)c1cc(-c2ccccc2OC)on1 (configuration not stated)	0.661
CCN1C(=CC=Cc2sc3ccccc3[n+]2CC)Sc2ccccc21	0.188
O=C(Nc1ccc2oc(-c3cccc4ccccc34)nc2c1)c1ccc([N+](=O)[O-])o1	0.0679
Cc1nn(-c2cc(N3CCOCC3)ccc2[N+](=O)[O-])c(=O)c2ccccc12	1.02
COc1ccc(C2CC(=O)C3=C(C2)NC(C)=C(C(=O)OC(C)C)C3c2ccccc2Br)cc1 (configuration not stated)	0.494
COc1cccc2cc(-c3nc(-c4ccccc4)cs3)c(=O)oc12	1.23
CCCCOc1nc(-c2ccc(OC)cc2)n(C(=O)c2ccccc2OC)n1	0.702
CCn1c(C=CN(C(C)=O)c2ccccc2)[n+](CC)c2cc(Cl)ccc21	0.724
CCOC(=O)c1c(NC(=O)CSc2nnc(CNC(=O)c3cccc(C)c3)n2Cc2ccccc2)sc2c1CCCC2	0.651
Cc1nc2ccccc2c(=O)n1NC(=O)c1cccc([N+](=O)[O-])c1	0.804
CN(C)c1cc[n+](Cc2c(Cl)cccc2Cl)cc1	0.675
CCOC(=O)c1ccc(N(C(=O)Cc2c[nH]c3ccccc23)C(C(=O)NC2CCCCC2)c2cccnc2)cc1 (configuration not stated)	0.513
COc1ccc(C2CC(=O)C3=C(C2)NC(=O)CC3c2ccc([N+](=O)[O-])cc2)cc1OC (configuration not stated)	0.406
CCOC(=O)C1=C(c2ccccc2)N=c2sc(=Cc3ccccc3O)c(=O)n2C1c1c(OC)ccc2ccccc12 (configuration not stated)	0.717
CCCCCCOC(=O)C1=C(C)NC(=O)NC1c1ccccc1F (configuration not stated)	1.43

SMILES	viability index
O=C(CN1CCCC1)N1N=C(c2cccs2)CC1c1ccc(F)cc1 (configuration not stated)	0.694
Cc1ccc(-n2c(SCc3cccc4ccccc34)nc3sc4c(c3c2=O)CCN(C)C4)cc1	1.21
O=[N+]([O-])c1ccc(N2CCCN(C(=S)Nc3ccccc3)CC2)nc1	0.0788
CN(C)CC(O)Cn1c2ccccc2c2ccccc21 (configuration not stated)	1.24
Cc1ccnc(Nc2nc(-c3c(C)nc4sccn34)cs2)c1	0.822
COc1cccc(OC)c1C(=O)Oc1cccc2ccc(C)nc12	0.706
COc1ccc2nc(-c3ccccc3)cc(O)c2c1	0.712
CCOC(=O)c1c[nH]c2ccc(C)cc2c1=O	0.642
CC(C)(C)c1ccc(-c2c[n+](-c3ccccc3)c3n2CCCS3)cc1	0.945
Cc1cccc(NC(=O)c2cc(Cl)nc3ccccc23)c1	0.878
Cn1c(C(=O)c2cccc3ccccc23)nc2ccccc21	1.26
O=C(Nc1cccc(Cl)c1)Nc1cc(C(F)(F)F)cc(C(F)(F)F)c1	0.99
Cc1nn(CC(O)Cn2c3ccc(Br)cc3c3cc(Br)ccc32)c(C)c1Br (configuration not stated)	0.634
CCCOc1ccc(C2Sc3ccccc3N=C3C2=C(O)c2ccccc23)cc1OC (configuration not stated)	0.699
Fc1ccc(CN2CCc3nc(N4CCCCC4)sc3C2)cc1F	0.923
COc1ccccc1/C=C/CN1CCN(c2ccccn2)CC1	1.15
COc1cc(C=NNC(=O)c2ccc(C(=O)NN=Cc3ccc(O)c(OC)c3)cc2)ccc1O	0.727
O=C(Nc1cc(C(=O)N2CCC(Cc3ccccc3)CC2)ccc1N1CC2CC(C1)c1cccc(=O)n1C2)c1cccs1 (configuration not stated)	0.336
COc1ccc(CN(C=O)/C=C2\Sc3ccccc3C2=O)cc1OC	0.996
Cc1cc(C)nc(NNc2c([N+](=O)[O-])cccc2[N+](=O)[O-])n1	0.358
CCN(CC)S(=O)(=O)c1ccc2[nH]cc(C(=O)NCCCN3CCN(c4ccc(OC)cc4)CC3)c(=O)c2c1	1.14
